From the supplement of paper PMC9174493
Where a name gives a salt, the structure may show the parent alone. Some of the results follow. Single values of this set are uncertain. Values with irradiation are relative to irradiated vehicle.

tested on: A549-Dual; test: NF-kB reporter (SEAP) activity, viability-corrected, relative to vehicle (fold change vs vehicle); higher = more activation of STING-IRF / NF-kB immune response reporter; conditions: 3 µM; irradiation: 8 Gy/4 fr
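Further: viability correction based on the alamar blue assay, with concentrations leaving 10% survival or less dropped.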

SMILES | NF-kB reporter
CCN(CC)Cc1cc(Nc2ccnc3cc(Cl)ccc23)ccc1O.Cl.Cl [Amodiaquine hydrochloride] | 1.38
CCN(C(=O)c1c(O)c2c(Cl)cccc2n(C)c1=O)c1ccccc1 [Laquinimod] | 1.84
O=C(c1ccc(OCCN2CCCCC2)cc1)c1c(-c2ccc(O)cc2)sc2cc(O)ccc12 [Raloxifene] | 0.945

same assay, conditions: 3 µM; irradiation: none

SMILES | NF-kB reporter
CCC(=O)OCC(=O)C1(OC(=O)CC)C(C)CC2C3CCC4=CC(=O)C=CC4(C)C3(Cl)C(O)CC21C (stereo not given) [Beclomethasone dipropionate] | 0.827
CC(=O)Nc1ccc(OC(=O)c2ccccc2OC(C)=O)cc1 [Benorylate] | 0.823
Nc1ccccc1NC(=O)c1ccc(CNC(=O)OCc2cccnc2)cc1 [Entinostat (MS-275)] | 1.63
COc1cc(N2CCC(N3CCN(C)CC3)CC2)ccc1Nc1ncc(Cl)c(Nc2ccccc2P(C)(C)=O)n1 | 1.04
Cc1c(-c2ccc(-c3ccccc3F)cc2)nc2ccc(F)cc2c1C(=O)O [Brequinar] | 1.38
CCC1/C=C(\C)CC(C)CC(OC)C2OC(O)(C(=O)C(=O)N3CCCCC3C(=O)OC(/C(C)=C/C3CCC(Cl)C(OC)C3)C(C)C(O)CC1=O)C(C)CC2OC (stereo not given) [Pimecrolimus] | 1.24
COC(=O)/C=C/C(=O)OC [Dimethyl Fumarate] | 0.712
Cc1cc(Nc2ncc(Cl)c(Nc3ccccc3S(=O)(=O)C(C)C)n2)c(OC(C)C)cc1C1CCNCC1 [Ceritinib (LDK378)] | 0.927
Nc1nc(Cl)nc2c1ncn2C1CC(O)C(CO)O1 (stereo not given) [Cladribine] | 3.76
CC12CCC(=O)C=C1CCC1C2C(O)CC2(C)C1CCC2(O)C(=O)CO (stereo not given) [Hydrocortisone] | 0.932
Cc1coc2c1C(=O)C(=O)c1c-2ccc2c(C)cccc12 [Tanshinone I] | 1.06
Cn1cnc([N+](=O)[O-])c1Sc1ncnc2nc[nH]c12 [Azathioprine] | 1.11
O=c1ccc2cc3ccoc3cc2o1 [Psoralen] | 1.05
CCC(=O)NS(=O)(=O)c1ccc(-c2c(-c3ccccc3)noc2C)cc1 [Parecoxib] | 0.883
COc1ccc(-c2ccc3cc(C(=O)O)ccc3c2)cc1C12CC3CC(CC(C3)C1)C2 [Adapalene] | 1.25
CCC(C(=O)O)c1ccc(N2Cc3ccccc3C2=O)cc1 (stereo not given) [Indobufen] | 0.874
COC1CC2CCC(C)C(O)(O2)C(=O)C(=O)N2CCCCC2C(=O)OC(C(C)CC2CCC(O)C(OC)C2)CC(=O)C(C)/C=C(\C)C(O)C(OC)C(=O)C(C)CC(C)/C=C/C=C/C=C/1C (stereo not given) [Rapamycin (Sirolimus)] | 1.27
COc1ccc(C2CNC(=O)C2)cc1OC1CCCC1 (stereo not given) [Rolipram] | 1.05
Nc1nc(N)c2nc(-c3ccccc3)c(N)nc2n1 [Triamterene] | 0.91
CN(C)CCN1C(=O)c2cccc3cc(N)cc(c23)C1=O [Amonafide] | 1.42
CN1CCCC1CCOC(C)(c1ccccc1)c1ccc(Cl)cc1.O=C(O)/C=C/C(=O)O (stereo not given) [Clemastine Fumarate] | 1.06
CC12C=CC(=O)C=C1CCC1C3CC(O)C(O)(C(=O)CO)C3(C)CC(O)C12F (stereo not given) [Triamcinolone] | 0.791
CC1CC2C3CCC4=CC(=O)C=CC4(C)C3C(=O)CC2(C)C1(O)C(=O)CO (stereo not given) [Meprednisone] | 1.02
CCS(=O)(=O)O.COC(=O)c1ccc2c(c1)NC(=O)/C2=C(\Nc1ccc(N(C)C(=O)CN2CCN(C)CC2)cc1)c1ccccc1 [Nintedanib Ethanesulfonate Salt] | 1.48
CCCCCCCCCCCCCCCCCCOP(=O)([O-])OC1CC[N+](C)(C)CC1 [Perifosine (KRX-0401)] | 1.17
CCC1(O)CC2CN(CCc3c([nH]c4ccccc34)C(C(=O)OC)(c3cc4c(cc3OC)N(C=O)C3C(O)(C(=O)OC)C(OC(C)=O)C5(CC)C=CCN6CCC43C65)C2)C1 (stereo not given) [Vincristine] | 1.99
Cl.Nc1ccn(C2OC(CO)C(O)C2O)c(=O)n1 (stereo not given) [Cytarabine hydrochloride] | 1.4
